From PubChem BioAssay AID686979 (National Center for Advancing Translational Sciences (NCATS), 2013)
Hit rate of the full screen: of about 420,000 compounds, about 50,000 (12%) were called active. The shares of active, inactive and inconclusive entries below differ from those in the screen. The call rests on the fitted dose curve; in most records, active means well fitted inhibition curve with a large enough effect; inconclusive means small, poorly fitted or top-dose-only effect; inactive means flat fitted curve, though single readings scatter. Potencies of inconclusive entries are left out as doubtful fits.

Experiment: qHTS for Inhibitors of human tyrosyl-DNA phosphodiesterase 1 (TDP1): qHTS in cells in presence of CPT; further: nearly all actives have a fitted effect of over 55% in size
Settings: chicken DT40 Tdp1-/-;hTDP1 cells + 20 nM CPT, ATP luminescence, 48 h; series mostly up to 46.2 µM
In short: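 Chicken DT40 Tdp1-/- cells complemented with human TDP1, 400 cells/well, exposed to compounds plus 20 nM camptothecin for at least 48 h at 37 C; viability read as ATP content by CellTiter-Glo luminescence.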
Potency means the concentration at half of the fitted maximal effect; tags describe the fitted curve by direction and shape.

Compound	Potency
CCN(C(=O)COC(=O)c1cc(C)n(-c2ccc(F)cc2)c1C)C1CCS(=O)(=O)C1 (stereo not given)	inconclusive [inhibitor, partial curve]
NC(=O)C1CCN(Cc2nc3ccccc3c(=O)[nH]2)CC1	inactive
CCOc1ccc(Nc2nc3c(c(=O)[nH]2)CCC3)cc1	inconclusive [inhibitor, single point]
CCc1ccc(NC(=O)Cn2ncc3c(C)n(Cc4cccc(Cl)c4)c(C)c3c2=O)cc1	inconclusive [inhibitor, single point]
CNC(=S)NNC(=O)c1ccc(=O)n(Cc2cccc(C(F)(F)F)c2)c1	inconclusive [inhibitor, full curve, poor fit]
CCN(Cc1cc(=O)oc2cc(C)ccc12)c1ccccc1	inconclusive [inhibitor, single point]
CNC(=O)COc1ccc(S(=O)(=O)Nc2ccc(C)cc2)cc1	inconclusive [inhibitor, single point]
COc1cc2c(cc1OC)CN(C(=O)c1sc(-c3cnccn3)nc1C)CC2	inactive
Cc1ccccc1NC(=O)CC(O)(C(F)(F)F)C(F)(F)F	inconclusive [inhibitor, single point]
CCOc1ccc(C(=O)CCC(=O)N2CCN(c3ccccc3O)CC2)cc1	inconclusive [inhibitor, partial curve, poor fit]
CC(C)c1ccc(NC(=O)C2(C)Cc3c(-c4cccc(C(F)(F)F)c4)ccnc3O2)cc1 (stereo not given)	active: 16.4 µM
CC12CCC(C/C1=N/OC(=O)c1cccc([N+](=O)[O-])c1)C2(C)C (stereo not given)	inactive
COC(=O)C(Cc1ccc(OC(=O)c2ccc(Cl)cc2)cc1)N1Cc2ccccc2C1=O (stereo not given)	inconclusive [inhibitor, single point]
COCCN(CC1CCCN(C2Cc3ccccc3C2)C1)C(=O)CSC (stereo not given)	inactive
O=C(O)c1cc(-c2ccco2)nc2ccc(Br)cc12	inactive
CC(=O)Nc1ccc(S(=O)(=O)NCc2ccc(C(=O)NCc3ccc(Cl)cc3)cc2)cc1	inconclusive [inhibitor, single point]
CC1Cc2ccccc2N1C(=O)CCNS(=O)(=O)c1cccc2nsnc12 (stereo not given)	inactive
CN(Cc1ccccc1F)C(=O)c1cccc(NC(=O)CC2SC(N3CCCCC3)=NC2=O)c1 (stereo not given)	active: 18.4 µM
CN(C)C(=O)CSc1nc2ccc(N3C(=O)c4ccccc4C3=O)cc2s1	inactive
CC1CCCC(C)N1/N=C/c1ccccc1C(=O)O (stereo not given)	inconclusive [inhibitor, single point]
